Measured values: the supplement of paper PMC7826260
The list shows a part of the results. One pool of 16,384 single-stranded DNAs met each Rep nickase domain in vitro (1 h at 37 °C, 3 µM enzyme); the outer parts of the 90-letter strands are left off. Numbers give uncut DNA relative to the enzyme-free pool, as log2; uncut sequences lie near 0, cut ones below; no hit call is given. The scaling is to total reads; where an enzyme cuts many sequences, the uncut ones exceed 0.

These sequences were tested on T1, Rep nickase domain of Muscovy duck circovirus (assay: uncleaved DNA left, log2 of reads against the no-enzyme library (log2 ratio); higher = less cleavage (more negative = more Rep cleavage of the k-mer); sequences stand for … in CTCGTCCG…ACCGGAGA).
T1 sequence (protein, residues 1-111, tag omitted): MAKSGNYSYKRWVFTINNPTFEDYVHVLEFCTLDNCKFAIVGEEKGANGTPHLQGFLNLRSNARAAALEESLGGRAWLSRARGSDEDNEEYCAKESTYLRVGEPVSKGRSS
Description: (§1)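 A pool of 90-nt single-stranded DNAs with seven random bases just before the constant AC of the nick site (name = the seven bases) was cut by 3 µM recombinant His6-SUMO-tagged Rep nickase domain (300 nM DNA, 50 mM HEPES pH 8.0, 50 mM NaCl, 1 mM MnCl2, 1 h, 37 °C, three replicates). Uncut DNA was amplified and sequenced.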
For CCGCCTG, the “uncleaved DNA left (log2)” value was -0.0345.
ATGCTCA was tested, and the “uncleaved DNA left (log2)” value was -0.0614.
With GTCCACA the “uncleaved DNA left (log2)” value was 0.013.
CTGTGCT was tested, and the “uncleaved DNA left (log2)” value was -0.761.
For ATAAAGT, the “uncleaved DNA left (log2)” value was -0.0117.
In the case of GCGTATG, the “uncleaved DNA left (log2)” value is reported as 0.0926.
In the case of ATCCGAA, the “uncleaved DNA left (log2)” value is reported as -0.0193.
For TACAAGA, the “uncleaved DNA left (log2)” value was -0.0322.
With CGCCAAC the “uncleaved DNA left (log2)” value was -0.0304.
In the case of CCGTTAT, the “uncleaved DNA left (log2)” value is reported as -0.269.
TAGTAGC was tested, and the “uncleaved DNA left (log2)” value was 0.00106.
For GTCGGGC, the “uncleaved DNA left (log2)” value was 0.0265.
With CCATGCT the “uncleaved DNA left (log2)” value was -0.631.
In the case of TGGCATC, the “uncleaved DNA left (log2)” value is reported as 0.0418.
With CTTGTGT the “uncleaved DNA left (log2)” value was 0.23.
For CACTCGT, the “uncleaved DNA left (log2)” value was -0.0893.
In the case of GTGTGAG, the “uncleaved DNA left (log2)” value is reported as -0.0345.
With CTTCGGG the “uncleaved DNA left (log2)” value was 0.0693.
For GGACTAT, the “uncleaved DNA left (log2)” value was 0.183.
For ATAACGG, the “uncleaved DNA left (log2)” value was -0.154.
With TAGCGTT the “uncleaved DNA left (log2)” value was 0.0105.
With GTTGTTG the “uncleaved DNA left (log2)” value was 0.0843.
For TTAACAG, the “uncleaved DNA left (log2)” value was 0.044.
With AGTGGGC the “uncleaved DNA left (log2)” value was -0.0146.
GCCAGAC was tested, and the “uncleaved DNA left (log2)” value was -0.171.
ACACGCG was tested, and the “uncleaved DNA left (log2)” value was 0.00717.
For GTATGTT, the “uncleaved DNA left (log2)” value was -1.97.
ACTCCCA was tested, and the “uncleaved DNA left (log2)” value was -0.245.
In the case of GACTCTC, the “uncleaved DNA left (log2)” value is reported as -0.0739.
With AAGAGGG the “uncleaved DNA left (log2)” value was 0.0747.
For CCTAACC, the “uncleaved DNA left (log2)” value was -0.419.
With TATGTCA the “uncleaved DNA left (log2)” value was -0.00887.
AGGAAGG was tested, and the “uncleaved DNA left (log2)” value was -0.109.
For TGTATGG, the “uncleaved DNA left (log2)” value was 0.134.
In the case of CGTTTTT, the “uncleaved DNA left (log2)” value is reported as -2.56.
In the case of CCGCGGA, the “uncleaved DNA left (log2)” value is reported as 0.0339.
For TCTCAAA, the “uncleaved DNA left (log2)” value was 0.149.
With CCGGACT the “uncleaved DNA left (log2)” value was -0.027.
CCTTTAA was tested, and the “uncleaved DNA left (log2)” value was 0.014.
For GCTAGGA, the “uncleaved DNA left (log2)” value was 0.0135.

These sequences were tested on T2, Rep nickase domain of banana bunchy top virus in the same assay as above.
T2 sequence (protein, residues 1-94, tag omitted): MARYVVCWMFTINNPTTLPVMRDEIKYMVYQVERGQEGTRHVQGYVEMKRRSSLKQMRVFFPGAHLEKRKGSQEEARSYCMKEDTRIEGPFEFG
Description: as §1
With CCGCCTG the “uncleaved DNA left (log2)” value was 0.0516.
In the case of ATGCTCA, the “uncleaved DNA left (log2)” value is reported as 0.0523.
For GTCCACA, the “uncleaved DNA left (log2)” value was 0.0476.
CTGTGCT was tested, and the “uncleaved DNA left (log2)” value was -0.194.
For ATAAAGT, the “uncleaved DNA left (log2)” value was 0.0756.
GCGTATG was tested, and the “uncleaved DNA left (log2)” value was -0.096.
ATCCGAA was tested, and the “uncleaved DNA left (log2)” value was -0.177.
With TACAAGA the “uncleaved DNA left (log2)” value was -0.00209.
With CGCCAAC the “uncleaved DNA left (log2)” value was 0.0661.
With CCGTTAT the “uncleaved DNA left (log2)” value was -0.115.
TAGTAGC was tested, and the “uncleaved DNA left (log2)” value was -0.0286.
For GTCGGGC, the “uncleaved DNA left (log2)” value was 0.0414.
CCATGCT was tested, and the “uncleaved DNA left (log2)” value was -0.00889.
TGGCATC was tested, and the “uncleaved DNA left (log2)” value was 0.0502.
In the case of CTTGTGT, the “uncleaved DNA left (log2)” value is reported as 0.0257.
With CACTCGT the “uncleaved DNA left (log2)” value was -0.526.
GTGTGAG was tested, and the “uncleaved DNA left (log2)” value was -0.038.
For CTTCGGG, the “uncleaved DNA left (log2)” value was 0.0288.
GGACTAT was tested, and the “uncleaved DNA left (log2)” value was 0.158.
ATAACGG was tested, and the “uncleaved DNA left (log2)” value was -0.0389.
TAGCGTT was tested, and the “uncleaved DNA left (log2)” value was -0.242.
For GTTGTTG, the “uncleaved DNA left (log2)” value was -0.0941.
For TTAACAG, the “uncleaved DNA left (log2)” value was 0.0456.
With AGTGGGC the “uncleaved DNA left (log2)” value was 0.14.
For GCCAGAC, the “uncleaved DNA left (log2)” value was -0.122.
With ACACGCG the “uncleaved DNA left (log2)” value was 0.103.
For GTATGTT, the “uncleaved DNA left (log2)” value was -0.127.
ACTCCCA was tested, and the “uncleaved DNA left (log2)” value was -0.178.
For GACTCTC, the “uncleaved DNA left (log2)” value was -0.117.
For AAGAGGG, the “uncleaved DNA left (log2)” value was 0.0898.
For CCTAACC, the “uncleaved DNA left (log2)” value was -0.178.
TATGTCA was tested, and the “uncleaved DNA left (log2)” value was 0.0584.
AGGAAGG was tested, and the “uncleaved DNA left (log2)” value was -0.108.
For TGTATGG, the “uncleaved DNA left (log2)” value was 0.0672.
CGTTTTT was tested, and the “uncleaved DNA left (log2)” value was -0.306.
For CCGCGGA, the “uncleaved DNA left (log2)” value was -0.193.
TCTCAAA was tested, and the “uncleaved DNA left (log2)” value was -0.0291.
With CCGGACT the “uncleaved DNA left (log2)” value was -0.166.
With CCTTTAA the “uncleaved DNA left (log2)” value was -0.0199.
For GCTAGGA, the “uncleaved DNA left (log2)” value was 0.0168.

These sequences were tested on T3, Rep nickase domain of cabbage leaf curl virus in the same assay as above.
T3 sequence (protein, residues 1-116, tag omitted): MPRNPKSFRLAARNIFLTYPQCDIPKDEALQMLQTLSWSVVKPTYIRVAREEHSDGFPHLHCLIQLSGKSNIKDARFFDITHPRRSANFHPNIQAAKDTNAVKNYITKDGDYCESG
Description: as §1
In the case of CCGCCTG, the “uncleaved DNA left (log2)” value is reported as -0.108.
In the case of ATGCTCA, the “uncleaved DNA left (log2)” value is reported as -0.0771.
In the case of GTCCACA, the “uncleaved DNA left (log2)” value is reported as 0.232.
For CTGTGCT, the “uncleaved DNA left (log2)” value was -0.572.
In the case of ATAAAGT, the “uncleaved DNA left (log2)” value is reported as 0.0627.
With GCGTATG the “uncleaved DNA left (log2)” value was 0.00278.
In the case of ATCCGAA, the “uncleaved DNA left (log2)” value is reported as 0.014.
With TACAAGA the “uncleaved DNA left (log2)” value was -0.0854.
CGCCAAC was tested, and the “uncleaved DNA left (log2)” value was -0.0202.
CCGTTAT was tested, and the “uncleaved DNA left (log2)” value was 0.0762.
TAGTAGC was tested, and the “uncleaved DNA left (log2)” value was -0.36.
GTCGGGC was tested, and the “uncleaved DNA left (log2)” value was 0.481.
With CCATGCT the “uncleaved DNA left (log2)” value was -0.8.
With TGGCATC the “uncleaved DNA left (log2)” value was 0.7.
With CTTGTGT the “uncleaved DNA left (log2)” value was -0.667.
In the case of CACTCGT, the “uncleaved DNA left (log2)” value is reported as -0.783.
For GTGTGAG, the “uncleaved DNA left (log2)” value was -0.302.
In the case of CTTCGGG, the “uncleaved DNA left (log2)” value is reported as -0.183.
In the case of GGACTAT, the “uncleaved DNA left (log2)” value is reported as 0.957.
With ATAACGG the “uncleaved DNA left (log2)” value was 0.225.
For TAGCGTT, the “uncleaved DNA left (log2)” value was -0.913.
With GTTGTTG the “uncleaved DNA left (log2)” value was -0.0859.
With TTAACAG the “uncleaved DNA left (log2)” value was -0.639.
With AGTGGGC the “uncleaved DNA left (log2)” value was 0.312.
GCCAGAC was tested, and the “uncleaved DNA left (log2)” value was 0.298.
In the case of ACACGCG, the “uncleaved DNA left (log2)” value is reported as 0.389.
With GTATGTT the “uncleaved DNA left (log2)” value was -0.55.
With ACTCCCA the “uncleaved DNA left (log2)” value was -0.319.
For GACTCTC, the “uncleaved DNA left (log2)” value was 0.177.
AAGAGGG was tested, and the “uncleaved DNA left (log2)” value was -0.14.
In the case of CCTAACC, the “uncleaved DNA left (log2)” value is reported as -0.332.
In the case of TATGTCA, the “uncleaved DNA left (log2)” value is reported as 0.107.
In the case of AGGAAGG, the “uncleaved DNA left (log2)” value is reported as -0.0656.
TGTATGG was tested, and the “uncleaved DNA left (log2)” value was 0.436.
For CGTTTTT, the “uncleaved DNA left (log2)” value was 0.0628.
CCGCGGA was tested, and the “uncleaved DNA left (log2)” value was -0.271.
For TCTCAAA, the “uncleaved DNA left (log2)” value was 0.2.
For CCGGACT, the “uncleaved DNA left (log2)” value was 0.445.
In the case of CCTTTAA, the “uncleaved DNA left (log2)” value is reported as -0.236.
For GCTAGGA, the “uncleaved DNA left (log2)” value was 0.0944.
